Article PMC4336329 (PLoS ONE, 2015)
About 2,200 (0.71%) of roughly 310,000 compounds showed an effect of 50% or more. The effect is printed as a negative number. Some of the results follow.

What follows are compounds tested against human ether-à-go-go-related gene (hERG) potassium channel (human, UniProt Q12809) (assay: primary screen, population patch clamp on CHO cells stably expressing hERG).
human ether-à-go-go-related gene (hERG) potassium channel, sequence (Q12809 whole entry, looked up): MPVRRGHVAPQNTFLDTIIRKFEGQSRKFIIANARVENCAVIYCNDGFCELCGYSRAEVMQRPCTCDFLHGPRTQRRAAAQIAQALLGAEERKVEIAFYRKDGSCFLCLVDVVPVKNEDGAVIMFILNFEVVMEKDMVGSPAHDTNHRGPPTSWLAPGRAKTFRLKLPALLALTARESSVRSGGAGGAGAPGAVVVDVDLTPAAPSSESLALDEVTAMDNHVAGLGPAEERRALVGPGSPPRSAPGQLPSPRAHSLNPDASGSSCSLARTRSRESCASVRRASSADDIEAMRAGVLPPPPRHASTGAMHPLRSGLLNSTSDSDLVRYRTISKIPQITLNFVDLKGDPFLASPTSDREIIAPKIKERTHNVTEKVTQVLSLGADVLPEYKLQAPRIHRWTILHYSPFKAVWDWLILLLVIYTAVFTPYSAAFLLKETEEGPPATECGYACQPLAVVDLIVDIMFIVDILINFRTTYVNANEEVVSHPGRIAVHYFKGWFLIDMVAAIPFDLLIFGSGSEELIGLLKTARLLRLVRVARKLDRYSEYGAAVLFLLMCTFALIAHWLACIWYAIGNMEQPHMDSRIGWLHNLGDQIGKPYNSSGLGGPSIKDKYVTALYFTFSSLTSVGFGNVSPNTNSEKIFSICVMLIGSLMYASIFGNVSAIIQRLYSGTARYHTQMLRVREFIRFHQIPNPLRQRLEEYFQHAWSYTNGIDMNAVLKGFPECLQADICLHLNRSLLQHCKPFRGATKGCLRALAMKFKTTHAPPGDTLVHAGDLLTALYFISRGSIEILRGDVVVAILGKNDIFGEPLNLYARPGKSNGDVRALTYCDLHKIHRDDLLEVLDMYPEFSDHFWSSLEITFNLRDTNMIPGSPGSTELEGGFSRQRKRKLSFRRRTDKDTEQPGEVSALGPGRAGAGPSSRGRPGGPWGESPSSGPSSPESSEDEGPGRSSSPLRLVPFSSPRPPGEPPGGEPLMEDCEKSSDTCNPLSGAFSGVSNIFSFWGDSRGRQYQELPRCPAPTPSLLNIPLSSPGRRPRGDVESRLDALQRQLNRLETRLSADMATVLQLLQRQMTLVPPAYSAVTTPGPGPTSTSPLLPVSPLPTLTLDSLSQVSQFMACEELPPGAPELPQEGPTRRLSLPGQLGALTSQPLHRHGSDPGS
With `COC(=O)C1=C(C(=O)OC)[C@@H]2Nc3ccccc3[C@@]23C[C@@H](C(=O)OC)N(C(=O)CC(C)C)C3=N1` the “hERG current change (%, negative = inhibition) at 1uM” value was 16.1%. In the case of `O=c1cc(-c2ccccc2)nc(/C=C/c2ccccc2)[nH]1`, the “hERG current change (%, negative = inhibition) at 1uM” value is reported as 8.79%. `O=C(Nc1nnc(SCc2ccc(Cl)cc2)s1)c1cnccn1` was tested, and the “hERG current change (%, negative = inhibition) at 1uM” value was -3.08%. For `COc1ccc(C(CNC(=O)c2ccc(NS(=O)(=O)c3cccc([N+](=O)[O-])c3)cc2)N2CCOCC2)cc1` (stereo not shown), the “hERG current change (%, negative = inhibition) at 1uM” value was 15.9%. `CC1CCCN(C(=O)C2CCN(S(=O)(=O)c3cccc4nsnc34)CC2)C1` (stereo not shown) was tested, and the “hERG current change (%, negative = inhibition) at 1uM” value was 3.62%. With `C/C(=N\Nc1nc(-c2cc(C)ccc2C)cs1)c1cc2c(ccc3ccccc32)oc1=O` the “hERG current change (%, negative = inhibition) at 1uM” value was 18%. In the case of `CN(CC(=O)Nc1ccccc1Br)C(=O)CCC1CCCC1`, the “hERG current change (%, negative = inhibition) at 1uM” value is reported as 11.8%. For `O=C(/C=C/c1c(F)cccc1Cl)c1ccc(F)cc1`, the “hERG current change (%, negative = inhibition) at 1uM” value was 17.6%. With `CC(C)c1ccc(CNc2ccc3c(c2)ncn3C)cc1` the “hERG current change (%, negative = inhibition) at 1uM” value was 21.4%. With `O=C(NCc1nnc(SCC(=O)N2CCCCCC2)o1)c1ccco1` the “hERG current change (%, negative = inhibition) at 1uM” value was 12.2%. For `O=C(NC1CCCC1)C(c1ccco1)N(C(=O)c1ccco1)c1ccc(F)cc1` (stereo not shown), the “hERG current change (%, negative = inhibition) at 1uM” value was 9.8%. In the case of `CS(=O)(=O)NCCSc1cc(C(F)(F)F)nc2ccccc12`, the “hERG current change (%, negative = inhibition) at 1uM” value is reported as 16.3%. With `CCC(C)(C)c1ccc(Oc2cccc(C(=O)O)c2)cc1` the “hERG current change (%, negative = inhibition) at 1uM” value was 5.05%. `Cc1ccc(C(=O)N2CCN(S(=O)(=O)c3sc(C(=O)O)c(C)c3C(=O)O)CC2)s1` was tested, and the “hERG current change (%, negative = inhibition) at 1uM” value was 17.5%. For `O=S(=O)(Cc1ccccc1)NCC1CCCN(Cc2ccc3nonc3c2)C1` (stereo not shown), the “hERG current change (%, negative = inhibition) at 1uM” value was 3.65%. With `Cc1c(N=C2NC(=O)/C(=C/c3cccc([N+](=O)[O-])c3)S2)c(=O)n(-c2ccccc2)n1C` the “hERG current change (%, negative = inhibition) at 1uM” value was 12.1%. For `O=C(Cn1c(CC(=O)N2CCCC2)nc2ccccc21)NCc1ccccc1`, the “hERG current change (%, negative = inhibition) at 1uM” value was 2.83%. For `CC(C)(C)OC(=O)N1CCCC1C(=O)N1CCc2ccccc21` (stereo not shown), the “hERG current change (%, negative = inhibition) at 1uM” value was 15.6%. With `O=C(NCc1cccs1)C1CCCN1C(=O)NC1CCCCC1` (stereo not shown) the “hERG current change (%, negative = inhibition) at 1uM” value was 17.6%. `CC(=O)Nc1ccc(S(=O)(=O)Nc2nnc(C(C)(C)C)s2)cc1` was tested, and the “hERG current change (%, negative = inhibition) at 1uM” value was 12.3%. `CCN(CC)Cc1c(O)ccc2c(=O)c(Oc3ccccc3OC)c(C)oc12` was tested, and the “hERG current change (%, negative = inhibition) at 1uM” value was 6.55%. With `CCC(C(=O)NC1CCCC1)N(C(=O)Cn1nnc(-c2ccc(C)cc2)n1)C1CCCC1` (stereo not shown) the “hERG current change (%, negative = inhibition) at 1uM” value was 9.94%. For `CC(C)CNC(=O)c1cccc(C(=O)NCC(C)C)c1`, the “hERG current change (%, negative = inhibition) at 1uM” value was 0.686%. For `CC(C)Cn1c(N2CCN(C(=O)/C=C/c3ccccc3)CC2)nc2ccccc21`, the “hERG current change (%, negative = inhibition) at 1uM” value was -32.9%. For `CC(C(=O)NCc1ccccc1Cl)N1C(=O)c2ccccc2C1=O` (stereo not shown), the “hERG current change (%, negative = inhibition) at 1uM” value was 8.94%. In the case of `CCOC(=O)N1CCN(S(=O)(=O)N2CCCC(C(=O)NC(C)c3ccccc3)C2)CC1` (stereo not shown), the “hERG current change (%, negative = inhibition) at 1uM” value is reported as 17.6%. With `CCOc1cc(/C=C(\C#N)C(N)=O)ccc1OCc1c(C)no[n+]1[O-]` the “hERG current change (%, negative = inhibition) at 1uM” value was 14.1%. In the case of `CCCCCCNC(=O)c1cn(CC)c2cc(N3CCN(C)CC3)c(F)cc2c1=O`, the “hERG current change (%, negative = inhibition) at 1uM” value is reported as 13.3%. With `CCCOc1ccc(C(=O)Nc2ccc(N(C)C)cc2)cc1` the “hERG current change (%, negative = inhibition) at 1uM” value was 9.76%. For `O=C(c1ccc(NS(=O)(=O)c2ccc(F)cc2)cc1)N1CCN(c2ccccc2O)CC1`, the “hERG current change (%, negative = inhibition) at 1uM” value was 10.8%. With `CCN(CC)C(=O)c1cn(-c2cccc(OC)c2)c(=O)c2ccccc12` the “hERG current change (%, negative = inhibition) at 1uM” value was 12.5%. With `C=CCn1c(=O)c(C(C)=O)cn(N(C)c2ncc(C(F)(F)F)cc2Cl)c1=O` the “hERG current change (%, negative = inhibition) at 1uM” value was 10.5%. `COc1ccc(-c2nc(-c3ccncc3)no2)cc1OC` was tested, and the “hERG current change (%, negative = inhibition) at 1uM” value was -1.49%. `O=C1C(Nc2ccccc2)=C(NS(=O)(=O)c2ccccc2)C(=O)c2ccccc21` was tested, and the “hERG current change (%, negative = inhibition) at 1uM” value was 4.84%. With `C/C(=N\NC(=O)c1cccc(N/N=C(\C)c2cc(O)ccc2O)c1)c1cc(O)ccc1O` the “hERG current change (%, negative = inhibition) at 1uM” value was 3.67%. In the case of `Cc1cccc(OC(C)C(=O)OCC(=O)Nc2sccc2C(N)=O)c1` (stereo not shown), the “hERG current change (%, negative = inhibition) at 1uM” value is reported as 1.82%. For `CCNc1nc(NCC)nc(NS(=O)(=O)c2ccc(N)cc2)n1`, the “hERG current change (%, negative = inhibition) at 1uM” value was 18.6%. For `COCc1nnc(NC(=O)C(C)C)s1`, the “hERG current change (%, negative = inhibition) at 1uM” value was 14.8%. With `Cn1cc(C(=O)NC2CCCCCCC2)c(=O)c2cc(S(=O)(=O)N3CCCC3)ccc21` the “hERG current change (%, negative = inhibition) at 1uM” value was 19.6%. `COc1cc(NC(=O)c2cc3c(C)nc4ccccc4c3o2)cc(OC)c1OC` was tested, and the “hERG current change (%, negative = inhibition) at 1uM” value was 7.87%. In the case of `Cc1ccc(S(=O)(=O)Nc2nc(C)c(NC(=O)OCCCl)s2)cc1`, the “hERG current change (%, negative = inhibition) at 1uM” value is reported as -2.38%. `O=C(Nc1ncc([N+](=O)[O-])s1)c1ccco1` was tested, and the “hERG current change (%, negative = inhibition) at 1uM” value was 17%. `Cc1c(N=C2SCC(=O)N2c2c(C)n(C)n(-c3ccccc3)c2=O)c(=O)n(-c2ccccc2)n1C` was tested, and the “hERG current change (%, negative = inhibition) at 1uM” value was 3.49%.
